Measurements as given in PubChem BioAssay AID485294 (National Center for Advancing Translational Sciences (NCATS), 2010).
Hit rate of the full screen: of about 370,000 compounds, about 150 (0.041%) were called active. The shares of active, inactive and inconclusive entries below differ from those in the screen. Calls come from the whole dose curve; as a rule, active = well fitted inhibition curve with a large enough effect; inconclusive = small, poorly fitted or top-dose-only effect; inactive = flat fitted curve, though single readings scatter. Potencies of inconclusive entries are left out as doubtful fits.

molecular target: Beta-lactamase (Escherichia coli (strain K12)) (UniProt P00811); assay: qHTS Inhibitors of AmpC Beta-Lactamase (assay with detergent); conditions: AmpC hydrolysis of nitrocefin, absorbance 480 nm, 0.01% Triton; series mostly up to 114 µM; note: nearly all actives have a fitted effect of over 25% in size
Procedure, shortened: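 20 mM phosphate pH 7.0 + 0.01% (detergent screen) or 0.0001% Triton X-100; 5.3 nM AmpC reagent; cpd preinc 15 min RT; nitrocefin (800 uM stock) to start; A480 q20 s × 4 min; Activity was normalised to no-enzyme and no-compound control wells.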
Potency is the fitted concentration of half-maximal effect; tags give direction and shape of the fitted curve.

UniProt P00811, sequence (P00811 whole entry, looked up): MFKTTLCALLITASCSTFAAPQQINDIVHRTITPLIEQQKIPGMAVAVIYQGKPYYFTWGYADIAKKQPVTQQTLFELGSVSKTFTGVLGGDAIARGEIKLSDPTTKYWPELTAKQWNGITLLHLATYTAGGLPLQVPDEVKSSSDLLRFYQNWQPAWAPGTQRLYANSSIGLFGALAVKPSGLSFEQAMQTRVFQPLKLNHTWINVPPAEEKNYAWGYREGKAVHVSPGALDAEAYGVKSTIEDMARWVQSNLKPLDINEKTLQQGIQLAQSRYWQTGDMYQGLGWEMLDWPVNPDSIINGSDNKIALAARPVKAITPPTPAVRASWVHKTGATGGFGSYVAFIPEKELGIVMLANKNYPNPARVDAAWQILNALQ

Structure (SMILES)	Potency
CCN(CC(=O)NCc1cccs1)C(=O)CCC(=O)c1ccc(F)cc1	inconclusive [inhibitor, partial curve, poor fit]
O=C(O)CSCc1cnn(-c2ccccc2)c1-n1cccc1	inconclusive [inhibitor, partial curve, poor fit]
COc1cc(NC(=O)C23CC4CC(C2)CC(n2nnc(C)n2)(C4)C3)c(OC)cc1Cl	inconclusive [inhibitor, full curve]
CCn1cc2nc(SCC(=O)Nc3ccccc3F)n(Cc3ccc(C)cc3)c(=O)c2n1	inactive
O=C(CCS(=O)(=O)c1ccc2c(c1)NC(=O)CS2)NCCc1ccccc1	inconclusive [inhibitor, full curve, poor fit]
Cc1csc(NC(=O)CSc2nc3ccccc3c(=O)[nH]2)n1	inconclusive [inhibitor, full curve, poor fit]
CC(C)CN(CC(C)C)C(=O)C12CCC(C)(C(=O)C1)C2(C)C (configuration not stated)	inconclusive [inhibitor, full curve]
COCc1nnc(NC(=O)c2ccc(S(=O)(=O)N(C)c3ccccc3)cc2)o1	inconclusive [inhibitor, partial curve, poor fit]
CC1(CCC(=O)N2CCCC(N3CCN(c4cccc(C(F)(F)F)c4)CC3)C2)CC1 (configuration not stated)	inconclusive [inhibitor, full curve]
CCc1nnc(NC(=O)CSc2nccn2Cc2ccc(F)cc2)s1	inactive
CC(C)Oc1ccc(C(=O)Nc2ccc(N(C)C)cc2)cc1	inconclusive [inhibitor, full curve]
O=C(Nc1c(-c2ccccc2)nc2ncccn12)c1cc2ccccc2oc1=O	inactive
CC(Sc1ccc(Cl)cc1)C(=O)NCc1ccc2c(c1)OCO2 (configuration not stated)	inconclusive [inhibitor, full curve]
O=C(CN1CCN(Cc2ccc(F)cc2Cl)C1=O)NCCCN1CCOCC1	inconclusive [inhibitor, full curve, poor fit]
N#C/C(=C/c1ccc(F)cc1)c1nnc(NC(=O)c2ccccc2)s1	inactive
CC(=O)Nc1ccc(NC(=O)Cn2cc3c(n2)CCCC3)cc1	inconclusive [inhibitor, full curve, poor fit]
COc1ccc(N=Nc2nc3cc(Br)c(Br)cc3n2C)c(OC)c1	inactive
O=C(Cn1ncc(Cl)c(Cl)c1=O)NCC1CCCCC1	inactive
Cc1ccccc1NC(=O)C1CCN(c2cnccn2)CC1	inconclusive [inhibitor, full curve, poor fit]
O=[N+]([O-])c1ccccc1-c1ccc(CN2CCN(c3ccccc3)CC2)o1	inconclusive [inhibitor, full curve, poor fit]
Cn1c(=O)c2c(nc(NCCO)n2CCCc2ccccc2)n(C)c1=O	inactive
COc1ccc(C2CC(C(F)(F)F)n3nc(C(=O)NCCN4CCOCC4)cc3N2)cc1 (configuration not stated)	inconclusive [inhibitor, partial curve, poor fit]
COc1cccc(NC(=O)Cn2nc3c4ccccc4n(Cc4cccc(F)c4)cc-3c2=O)c1	inactive

Structure (SMILES)	Potency
CCOn1c(=O)c(-c2ccc(OC)cc2)[n+]([O-])c2ccccc21	inconclusive [inhibitor, partial curve, poor fit]
N#Cc1c(C(F)(F)F)cc(-c2ccc(Cl)c(Cl)c2)nc1SCCN1CCOCC1	inconclusive [inhibitor, single point]
COCCN(C(=O)COC(=O)Cc1ccccc1)c1c(N)n(Cc2ccccc2)c(=O)[nH]c1=O	inconclusive [inhibitor, full curve, poor fit]
CCOCC(=O)Nc1cc(C(F)(F)F)ccc1Oc1cccc(Br)c1	inconclusive [inhibitor, full curve]
CC(=O)N1CCN(C(=O)COC(=O)COc2ccc(C#N)cc2)CC1	inconclusive [inhibitor, single point]
c1cc2nnnn2nc1N1CCCCC1	inconclusive [inhibitor, partial curve]
CC(Oc1ccc(S(=O)(=O)N2CCCC2)cc1[N+](=O)[O-])C(=O)N(C)c1ccccc1 (configuration not stated)	inconclusive [inhibitor, full curve, poor fit]
O=C(NCCCN1CCOCC1)c1ccccc1	inactive
COc1ccc(OC)c(C2C(C(=O)c3cc4ccccc4o3)=C(O)C(=O)N2c2cc(C)on2)c1 (configuration not stated)	inconclusive [inhibitor, partial curve, poor fit]
C#CCSc1nnc(-c2ccc([N+](=O)[O-])cc2)o1	inconclusive [inhibitor, full curve]
Cc1csc(=Nc2cccnc2)n1Cc1ccco1	inactive
COc1cccc([C@@H]2Nc3ccc(C(=O)O)cc3[C@@H]3C=CC[C@@H]32)c1OC	inactive
CCCCC(=O)Nc1ccc(NC(=O)c2ccco2)cn1	inconclusive [inhibitor, partial curve]
Cc1cc(C)cc(N2CC(C(=O)O)CC2=O)c1 (configuration not stated)	inconclusive [inhibitor, full curve, poor fit]
CC(C)(C)NC(=O)Cn1c(=O)oc2cc(S(=O)(=O)N3CCc4ccccc43)ccc21	inconclusive [inhibitor, full curve, poor fit]
Cc1cc(C)cc(NC(=O)C(=O)NCC2CCCN2S(=O)(=O)c2cccs2)c1 (configuration not stated)	inconclusive [inhibitor, full curve, poor fit]
Cc1cc(C)cc(NS(=O)(=O)c2ccc(NC(=O)C3CCCCC3C(=O)O)cc2)c1 (configuration not stated)	inconclusive [inhibitor, partial curve, poor fit]
O=C(C1CCN(S(=O)(=O)c2ccccc2)CC1)N(CCc1ccccc1)Cc1ccco1	inconclusive [inhibitor, full curve]
CS(=O)(=O)N1CCN(c2ccc(NC(=O)c3ccc([N+](=O)[O-])o3)cc2)CC1	inactive
COc1cccc(Nc2ncc(C#N)c(N)n2)c1	inconclusive [inhibitor, full curve, poor fit]
CC(C)c1ccc(NC2CCCN(C(=O)c3ccc(Cn4cnnn4)cc3)C2)cc1 (configuration not stated)	inconclusive [inhibitor, full curve, poor fit]
O=C(CN1CCOCC1)c1cccc2ccccc12	inconclusive [inhibitor, full curve]
Cc1nn(CC(=O)O)c(C)c1C	inconclusive [inhibitor, full curve, poor fit]

Structure (SMILES)	Potency
O=C(NCCc1ccccc1)NC1CCCCC1	inactive
CCOc1ccccc1NC(=O)NCCC1=CCCCC1	inconclusive [inhibitor, single point]
COc1ccc(/C=N\Nc2ccccc2[N+](=O)[O-])c(C(=O)O)c1OC	inactive
COC(C(=O)Nc1ccnn1C1CCN(Cc2nccs2)CC1)c1ccccc1 (configuration not stated)	inconclusive [inhibitor, full curve]
CCc1cc2c(nc1CC)CCN(CC/C(C)=N/O[C@@H](C)c1cc(-c3c(C)cc(C)cc3C)no1)C2	inconclusive [inhibitor, partial curve]
COc1ccc(OC)c(-c2csc(NC(=O)CSCc3c(C)noc3C)n2)c1	inconclusive [inhibitor, full curve, poor fit]
COc1ccc(CCC(=O)NCc2nc3cccnc3n2Cc2ccc(C)cc2)cc1	inactive
CCc1noc(C)c1C(=O)N1CCN(S(=O)(=O)c2ccc(Br)cc2)CC1	inconclusive [inhibitor, partial curve]
CCOC(=O)CSc1nnc(-c2ccc(OC)cc2)n1CC	inconclusive [inhibitor, full curve, poor fit]
Cn1nnc2cc(C(=O)NC3CC3)ccc21	inconclusive [inhibitor, full curve, poor fit]
CCCCN(CC)CCCNC(=O)C1CCN(c2nc3ccc(CC)cc3s2)CC1	inconclusive [inhibitor, full curve, poor fit]
Cc1ccc(CSC2=NCCN2C(=O)c2ccc([N+](=O)[O-])cc2)cc1	inconclusive [inhibitor, single point]
COc1ccc(CCN(C)C2CCCN(S(C)(=O)=O)C2)cc1OC (configuration not stated)	inconclusive [inhibitor, full curve, poor fit]
O=C(OCC(=O)N1c2ccccc2Sc2ccccc21)C1CC(=O)N(Cc2ccco2)C1 (configuration not stated)	inconclusive [inhibitor, full curve, poor fit]
CCOC(=O)N1CCN(CC(=O)N2CCC(C(N)=O)CC2)CC1	inconclusive [inhibitor, full curve, poor fit]
Cc1ccc(C)c(OCC(=O)Nc2nc3ccc([N+](=O)[O-])cc3s2)c1C	inactive
CC(C)CCNC(=O)c1cccc(-n2cnc3cccnc32)c1	inactive
COc1ccc(OC)c2sc(N(Cc3cccnc3)C(=O)c3ccc(C(C)=O)cc3)nc12	inactive
O=C(NCc1ccccc1)c1cc2ccccc2o1	inactive
COc1ccc(S(=O)(=O)Nc2ccc(S(=O)(=O)N3CCCCC3)cc2)cc1C	inconclusive [inhibitor, single point]
CC(=O)Nc1cccc(Oc2ncnc3scc(-c4ccccc4)c23)c1	inconclusive [inhibitor, single point]
